Results as given in the supplement of paper PMC9135407.
Values joined by “and” are separate entries in the source; they are usually repeats but may differ in a detail not shown here. Equal values may be shown once. Where a name gives a salt, the structure may show the parent alone. Hit rate of the full screen: of about 5,800 compounds, about 620 (11%) showed activity.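 Rule for the calls: active = score above a cut-off or among the top three wells of a plate; in these data no inactive exceeds 0.85.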 Only a part is listed here, and it is no random draw.

Tested on: primary human hepatic stellate cells (donor 1)
Assay: scaled lipid accumulation score (0 = DMSO-like, 1 = nortriptyline-like); higher = stronger HSC inactivation (lipid re-accumulation), active = hit call of the paper
Conditions: 48 h
[1] = library stock concentration: 10 mM
[2] = library stock concentration: 1 mM
[3] = library stock concentration: 3.33 mM
[4] = library stock concentration: 7.2 mM

With `CN1C[C@H](CNC(=O)OCc2ccccc2)C[C@@H]2c3cccc4c3c(cn4C)C[C@H]21` [Metergoline] the “scaled lipid accumulation score” value was active: 1.06.
With `c1ccc(CCCN2CCN(CCOC(c3ccccc3)c3ccccc3)CC2)cc1` the “scaled lipid accumulation score” value [1] was inactive: ≤ -0.07 and inactive: 0.566.
`Clc1cccc(SC2CCNCC2)n1` [Anpirtoline hydrochloride] was tested, and the “scaled lipid accumulation score” value [1] was inactive: 0.117.
`O=c1c2ccccc2[se]n1-c1ccccc1` [Ebselen] was tested, and the “scaled lipid accumulation score” value was active: 0.867.
`COc1ccc(C(=O)c2c(C)n(CCN3CCOCC3)c3ccccc23)cc1` [Pravadoline] was tested, and the “scaled lipid accumulation score” value (library stock concentration: 5.3 mM) was inactive: ≤ -0.006.
In the case of `CCOC(=O)c1ncc2[nH]c3ccc(OCc4ccccc4)cc3c2c1COC`, the “scaled lipid accumulation score” value [1] is reported as inactive: ≤ -0.006.
In the case of `CC(C)(N)Cc1ccccc1` [Phentermine], the “scaled lipid accumulation score” value (library stock concentration: 13.4 mM) is reported as inactive: 0.061.
`NP(N)(=O)NC(=O)c1ccc(F)cc1` was tested, and the “scaled lipid accumulation score” value [1] was inactive: ≤ 0.
`NP(N)(=O)NC(=O)c1ccc(F)cc1` [Flurofamide] was tested, and the “scaled lipid accumulation score” value [1] was inactive: ≤ 0.
`C=C(C)[C@@H]1CCC(C)=C[C@H]1c1c(OC)cc(CCCCC)cc1OC` [Cannabidiol dimethyl ether] was tested, and the “scaled lipid accumulation score” value [2] was inactive: ≤ 0.
With `CN1CCc2cc3c(cc2C1O)OCO3` (stereo not drawn) [Hydrastinine hydrochloride] the “scaled lipid accumulation score” value was inactive: ≤ 0.
In the case of `CN1C2CCC1CC(OC(c1ccccc1)c1ccc(Cl)cc1)C2.Cl` (stereo not drawn), the “scaled lipid accumulation score” value [1] is reported as active: 1.07.
In the case of `NC(=NN=Cc1ccc(-c2cccc([N+](=O)[O-])c2)o1)N[N+](=O)[O-]` [ERK Inhibitor III], the “scaled lipid accumulation score” value [3] is reported as inactive: ≤ 0.
For `O=c1c2ccccc2[se]n1-c1ccccc1`, the “scaled lipid accumulation score” value [1] was active: 1.07.
`CCCCCCCCCCCCCCCCSP(=O)([O-])OCC[N+](C)(C)C` [thio-Miltefosine] was tested, and the “scaled lipid accumulation score” value [2] was inactive: ≤ 0.
In the case of `CCc1c(C(=O)C(N)=O)c2c(OCC(=O)O)cccc2n1Cc1ccccc1`, the “scaled lipid accumulation score” value [3] is reported as inactive: ≤ 0 and the “scaled lipid accumulation score” value [1] is reported as inactive: ≤ 0.
In the case of `CCNCC(O)c1cccc(O)c1` (stereo not drawn) [Etilefrine hydrochloride], the “scaled lipid accumulation score” value is reported as inactive: ≤ 0.
For `CCCCCC(/C=C/C=O)OO` (stereo not drawn) [4-hydroperoxy 2-Nonenal], the “scaled lipid accumulation score” value [2] was inactive: 0.019.
`Cc1sc2c(c1C)C(c1ccc(Cl)cc1)=N[C@@H](CC(=O)Nc1ccc(O)cc1)c1nnc(C)n1-2` was tested, and the “scaled lipid accumulation score” value [3] was inactive: ≤ -0.009 and the “scaled lipid accumulation score” value [1] was inactive: 0.002.
With `CS(=O)(=O)O.Oc1ccc2c3c1O[C@H]1c4oc5ccccc5c4C[C@@]4(O)C(C2)N(CC2CC2)CC[C@]314` [Naltriben mesylate] the “scaled lipid accumulation score” value [1] was active: 1.27.
For `Cc1o[nH]c(=O)c1CC(N)C(=O)O` (stereo not drawn) [(?)-AMPA hydrobromide], the “scaled lipid accumulation score” value [1] was inactive: ≤ -0.07.
With `CC[C@H]1CN2CCc3cc(OC)c(OC)cc3C2C[C@@H]1CC1NCCc2cc(OC)c(OC)cc21.Cl.Cl` (stereo partly drawn) [Emetine] the “scaled lipid accumulation score” value (library stock concentration: 3.6 mM) was active: 1.37.
In the case of `C[C@@H]1O[C@@H](O[C@@H]2C[C@@H](O)[C@]3(CO)[C@H]4[C@H](O)C[C@]5(C)[C@@H](C6=CC(=O)OC6)CC[C@]5(O)[C@@H]4CC[C@]3(O)C2)[C@H](O)[C@H](O)[C@H]1O` [Ouabain], the “scaled lipid accumulation score” value [1] is reported as active: 1.
In the case of `COc1ccc(C(CN(C)C)C2(O)CCCCC2)cc1` (stereo not drawn), the “scaled lipid accumulation score” value [1] is reported as inactive: ≤ 0.
`COc1ccc(C(CN(C)C)C2(O)CCCCC2)cc1` (stereo not drawn) [Venlafaxine] was tested, and the “scaled lipid accumulation score” value [3] was inactive: ≤ 0, the “scaled lipid accumulation score” value [4] was inactive: 0.227 and the “scaled lipid accumulation score” value [1] was inactive: 0.127 and inactive: 0.164.
For `COc1ccc(C(CN(C)C)C2(O)CCCCC2)cc1` (stereo not drawn) [Venlafaxine HCl], the “scaled lipid accumulation score” value [4] was inactive: 0.007.
`COc1ccc(C(CN(C)C)C2(O)CCCCC2)cc1` (stereo not drawn) [Venlafaxine hydrochloride] was tested, and the “scaled lipid accumulation score” value [1] was inactive: 0.155.
For `O=C(O)CCC(CP(=O)(O)O)C(=O)O` (stereo not drawn) [PMPA (NAALADase inhibitor)], the “scaled lipid accumulation score” value [1] was inactive: ≤ -0.006.
For `CN1[C@H]2C[C@H](OC(=O)[C@H](CO)c3ccccc3)C[C@@H]1[C@@H](O)C2`, the “scaled lipid accumulation score” value [1] was inactive: ≤ 0.
`CN1[C@H]2C[C@H](OC(=O)[C@H](CO)c3ccccc3)C[C@@H]1[C@@H](O)C2` [Anisodamine] was tested, and the “scaled lipid accumulation score” value [1] was inactive: 0.076.
`CC(C)(C)OC(=O)c1ncn2c1[C@@H]1CCCN1C(=O)c1c(Br)cccc1-2` [Bretazenil] was tested, and the “scaled lipid accumulation score” value [1] was inactive: 0.046.
With `CN(C)C(=O)Oc1cccc([N+](C)(C)C)c1` [Neostigmine bromide] the “scaled lipid accumulation score” value was inactive: ≤ 0, the “scaled lipid accumulation score” value (library stock concentration: 6.6 mM) was inactive: 0.003 and the “scaled lipid accumulation score” value [1] was inactive: ≤ 0 and inactive: ≤ -0.055.
In the case of `Cc1onc(O)c1C[C@H](N)C(=O)O`, the “scaled lipid accumulation score” value [1] is reported as inactive: ≤ 0.
For `CNC(=O)Oc1ccc2c(c1)[C@]1(C)CCN(C)[C@@H]1N2C` [(-)-Physostigmine], the “scaled lipid accumulation score” value [1] was inactive: ≤ -0.07.
For `CNC(=O)Oc1ccc2c(c1)[C@]1(C)CCN(C)[C@@H]1N2C` [Physostigmine], the “scaled lipid accumulation score” value [1] was inactive: ≤ 0.
In the case of `CNC(=O)Oc1ccc2c(c1)[C@]1(C)CCN(C)[C@@H]1N2C` [Physostigmine salicylate], the “scaled lipid accumulation score” value (library stock concentration: 4.8 mM) is reported as inactive: ≤ -0.001 and the “scaled lipid accumulation score” value [1] is reported as inactive: ≤ 0.
